The values that follow come from paper PMC9860685, “α-Crystallin Domains of Five Human Small Heat Shock Proteins (sHsps) Differ in Dimer Stabilities and Ability to Incorporate Themselves into Oligomers of Full-Length sHsps” (International Journal of Molecular Sciences, 2023).

Data set [1] deals with the molecule itself. Kind of data set: SEC; Superdex 75 10/300 GL, 50 mM phosphate pH 7.4, 150 mM NaCl, 2 mM DTT; 25 μL samples of 16–150 μg (25–600 μM per monomer); apparent dissociation constant, dimer to monomers, from a hyperbolic fit of elution volume against the concentration loaded. For orientation: In gel filtration, larger molecules generally elute earlier.
The target of data set [2] is T1, 3D mutant of HspB1 (S15D, S78D, S82D) (human, UniProt P04792, S15D | S78D | S82D).
T1 construct: human HspB1, full length, with three phosphomimicking point mutations; Forms small oligomers (probably dimers or tetramers, by cited work); also called full-length 3D mutant
Kind of data set: SEC; full-length sHsp (~19–20 μM per monomer) mixed with ACD (38–110 μM per monomer) in buffer B, 30 min at 42 °C; Superdex 200 Increase column in 50 mM phosphate pH 7.4, 150 mM NaCl, 2 mM DTT; fractions analysed by SDS–PAGE. The settings on record: both partners purified.

Another data set deals with T2, full-length HspB6 (human, UniProt O14558 1-160).
T2 construct: Predominantly dimeric by cited work; also called B6FL
T2 sequence (looked up): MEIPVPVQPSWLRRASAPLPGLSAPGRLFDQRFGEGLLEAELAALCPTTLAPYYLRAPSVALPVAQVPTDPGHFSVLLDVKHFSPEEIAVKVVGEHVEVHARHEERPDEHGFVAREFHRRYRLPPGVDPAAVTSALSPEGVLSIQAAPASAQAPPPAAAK
The data set can be described thus: native gel or EMSA; clear native PAGE, 12.5% gel, 80 mM glycine–Tris pH 8.6; sHsp 5–6 μM per monomer mixed with ACD 20–24 μM per monomer, 30 min at 25 °C in buffer B; Western blot with anti-HspB6 for the complexes of HspB6. To be noted: both partners purified. For orientation: Mobility shift assays separate free from complexed probe on a gel.

Data set [3] concerns the molecule itself. Kind of data set: SEC-MALS; Superdex 200 Increase 10/300, 20 mM Tris–HCl pH 7.5, 150 mM NaCl, 3 mM β-mercaptoethanol; 2 mg/mL, 90 µL loaded.

B1: α-crystallin domain of HspB1 (B1ACD) (domain or fragment)
chain: not shown
notes: human HspB1, α-crystallin domain, […]; Cloned by NdeI and XhoI into pET23b; In equilibrium of monomers and dimers; also called HspB1 ACD; source: E. coli, purified (ammonium sulfate fractionation, ion-exchange chromatography, size-exclusion chromatography)
As for B1, the Kd in data set [1] amounted to 27 µM. Further, the binding result (in data set [2]; in the data set with full-length HspB6) was “binds” in each case. Besides, the “stoichiometry N” value in data set [3] was 2.

As a reminder, the stoichiometry N is a count of units in the complex or per binding partner.
